Reference: PubChem BioAssay AID504332 (National Center for Advancing Translational Sciences (NCATS), 2011)
Hit rate of the full screen: of about 350,000 compounds, about 31,000 (8.9%) were called active. Inconclusive results, whose numbers are uncertain, are shown with a selection of clear calls. Calls follow the shape of the dose curve; as a rule, active = well fitted inhibition curve with a large enough effect; inconclusive = small, poorly fitted or top-dose-only effect; inactive = no such curve, though single readings can be large or run the other way. A potency beside an inconclusive call is a rough fit, not a confirmed value.

The molecules below were run against Histone-lysine N-methyltransferase EHMT2 (Homo sapiens) (UniProt Q96KQ7) (assay: qHTS Assay for Inhibitors of Histone Lysine Methyltransferase G9a). Conditions: G9a H3K9 monomethylation, AlphaScreen, 2 h; activity, negative = inhibition: at 59 µM (top of the series) unless noted.
Chain of UniProt Q96KQ7 (Q96KQ7 whole entry, looked up): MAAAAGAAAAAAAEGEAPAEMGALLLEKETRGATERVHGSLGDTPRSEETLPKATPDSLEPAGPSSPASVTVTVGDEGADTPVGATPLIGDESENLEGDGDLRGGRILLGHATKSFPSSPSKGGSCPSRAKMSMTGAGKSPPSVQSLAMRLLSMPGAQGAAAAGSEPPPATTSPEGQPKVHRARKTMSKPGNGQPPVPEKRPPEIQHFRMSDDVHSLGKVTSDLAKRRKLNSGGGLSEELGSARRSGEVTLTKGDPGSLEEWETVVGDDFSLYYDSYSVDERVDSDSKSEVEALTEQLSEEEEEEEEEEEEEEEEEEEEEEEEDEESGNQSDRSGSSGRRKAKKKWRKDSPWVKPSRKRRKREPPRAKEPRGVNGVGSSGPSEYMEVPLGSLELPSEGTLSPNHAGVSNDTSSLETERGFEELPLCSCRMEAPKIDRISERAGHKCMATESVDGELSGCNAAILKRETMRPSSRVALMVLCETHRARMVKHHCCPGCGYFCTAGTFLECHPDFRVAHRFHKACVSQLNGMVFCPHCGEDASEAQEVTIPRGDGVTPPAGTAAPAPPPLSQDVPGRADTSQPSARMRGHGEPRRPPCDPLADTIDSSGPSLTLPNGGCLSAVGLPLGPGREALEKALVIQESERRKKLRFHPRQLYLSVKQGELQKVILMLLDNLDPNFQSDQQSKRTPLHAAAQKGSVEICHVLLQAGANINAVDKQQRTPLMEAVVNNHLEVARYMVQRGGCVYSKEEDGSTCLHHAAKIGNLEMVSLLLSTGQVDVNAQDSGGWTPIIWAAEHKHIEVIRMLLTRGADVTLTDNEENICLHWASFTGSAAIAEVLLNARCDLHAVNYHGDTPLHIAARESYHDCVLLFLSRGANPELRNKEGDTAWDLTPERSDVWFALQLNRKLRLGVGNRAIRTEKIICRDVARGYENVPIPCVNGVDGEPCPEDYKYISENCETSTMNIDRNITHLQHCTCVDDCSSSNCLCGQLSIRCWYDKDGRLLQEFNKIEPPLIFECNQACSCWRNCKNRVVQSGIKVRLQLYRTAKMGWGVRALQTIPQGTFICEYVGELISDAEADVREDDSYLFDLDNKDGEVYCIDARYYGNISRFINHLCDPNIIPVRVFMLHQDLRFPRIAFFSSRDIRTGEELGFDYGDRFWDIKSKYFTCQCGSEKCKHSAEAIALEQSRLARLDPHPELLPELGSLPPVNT
Outline: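 AlphaScreen read-out: biotin-H3K9 peptide (500 nM) methylation by 20 nM enzyme with 20 uM SAM, 2 h at room temperature after 15 min compound preincubation; anti-monomethyl H3K9 antibody plus donor/acceptor beads, 10 min dark.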
% is scaled to controls: 0 for no effect and ±100 for the full control effect; potency is read from the fitted curve at half-maximal effect; tags tell the direction and shape of the fitted curve.
Also: nearly all actives have a fitted effect of over 75% in size.

Q: With COCCCN(C(=O)CCOc1ccccc1C)c1c(N)n(Cc2ccccc2)c(=O)[nH]c1=O as the molecule, how does the Potency read?
A: The Potency was inconclusive: 89.1 µM [inhibitor, single point].

Q: For Cc1nc(SCC(=O)c2cccc([N+](=O)[O-])c2)n[nH]1, which activity, negative = inhibition is on record?
A: Its activity, negative = inhibition is inconclusive: -128% [inhibitor].

Q: Cc1cc(C)c(NC(=O)CCn2c(=O)c3cccn3c3cccnc32)c(C)c1 was tested. Which Potency did it give?
A: Its Potency is “inactive”.

Q: Which Potency does the source give for COc1ccc(CCC(N)=O)cc1OC here?
A: The Potency was inconclusive: 79.4 µM [inhibitor, partial curve, poor fit].

Q: CCc1ccccc1NC(=O)N[C@H](C(=O)O)C(C)C was tested. Which Potency did it give?
A: The Potency was inconclusive: 89.1 µM [inhibitor, single point].

Q: With CN(C)C=C1C(=O)c2ccccc2C1=O as the molecule, how does the Potency read?
A: Its Potency is inconclusive: 10 µM [inhibitor, partial curve].

Q: Which activity, negative = inhibition does the source give for Cc1ccc(S(=O)(=O)N(C)c2ccc(OC(=O)CN3C(=O)NC4(CCCC4)C3=O)cc2)cc1C here?
A: Its activity, negative = inhibition is inactive: 8.22% [at 0.501 µM].

Q: CC(=O)OCC1=C(C(=O)O)N2C(=O)C(NC(=O)CCn3nc(C)c(Cl)c3C)C2SC1 (stereo not given) was tested. Which Potency did it give?
A: The Potency was inconclusive: 39.8 µM [inhibitor, partial curve].

Q: Which Potency does the source give for O=C(CSc1ncn[nH]1)Nc1nc(-c2ccccc2)ns1 here?
A: The Potency was inconclusive: 3.98 µM [inhibitor, full curve].

Q: How did the Potency turn out when CC1CCCCN1S(=O)(=O)c1ccc(S(=O)(=O)N2CCCC2)cc1 (stereo not given) was run?
A: Its Potency is inconclusive: 39.8 µM [inhibitor, single point].

Q: C/C(=N\N(c1ccccc1)c1ccccc1)c1ccc(O)cc1 was tested. Which Potency did it give?
A: Its Potency is active: 79.4 µM.

Q: CCOC(=O)c1[nH]cnc1C(=O)Nc1cccc(N)n1 was tested. Which Potency did it give?
A: Its Potency is inconclusive: 0.562 µM [inhibitor, partial curve, poor fit].

Q: For NS(=O)(=O)c1ccc(CNC(=O)c2sccc2-c2ccccc2)cc1, which Potency is on record?
A: Its Potency is “inactive”.

Q: For CCCC(c1nnnn1Cc1ccco1)N1CCC(C(N)=O)CC1 (stereo not given), which Potency is on record?
A: The Potency was inconclusive: 39.8 µM [inhibitor, single point].

Q: O=C(CN1CCN(c2ccccc2)CC1)Nc1ccc(F)cc1 was tested. Which Potency did it give?
A: The Potency was “inactive”.

Q: CC(Nc1ccc(Br)cc1)C(=O)Nc1cccc(S(=O)(=O)N2CCOCC2)c1 (stereo not given) was tested. Which Potency did it give?
A: The Potency was inconclusive: 79.4 µM [inhibitor, partial curve, poor fit].

Q: How did the Potency turn out when CN(C)CCNC(=O)c1[nH]nc2c1CCc1ccccc1-2 was run?
A: The Potency was active: 44.7 µM.

Q: Which Potency does the source give for CCN=C1S/C(=C\c2cc(OCC)c(O)cc2Br)C(=O)N1CC here?
A: Its Potency is “inactive”.

Q: With Cc1cc(C(=O)COC(=O)c2ccc(Br)o2)c(C)n1Cc1ccco1 as the molecule, how does the Potency read?
A: The Potency was inconclusive: 31.6 µM [inhibitor, full curve].

Q: For O=c1[nH][nH]c(-c2ccccc2)c1C=Nc1ccc(C(F)(F)F)cc1, which Potency is on record?
A: The Potency was inconclusive: 70.8 µM [inhibitor, partial curve].

Q: For O=C(O)Cn1c(=O)c2c(c3ccccc31)CCC2, which Potency is on record?
A: The Potency was inconclusive: 89.1 µM [inhibitor, single point].

Q: Clc1ccc(C(CCN2CCCC2)Cc2ccccc2)cc1 (stereo not given) was tested. Which Potency did it give?
A: Its Potency is active: 10 µM.

Q: For O=C(NCCCN1CCCC1=O)c1cccc(NS(=O)(=O)c2ccc(Br)cc2)c1, which Potency is on record?
A: The Potency was “inactive”.

Q: OCCN1CCN(C(c2ccccc2Cl)c2sc3nc(-c4ccco4)nn3c2O)CC1 (stereo not given) was tested. Which Potency did it give?
A: The Potency was inconclusive: 39.8 µM [inhibitor, partial curve, poor fit].

Q: How did the Potency turn out when Cc1cccc(N2C(=O)CS(=O)(=O)C23C(=O)N(Cc2c(F)cccc2Cl)c2ccccc23)c1 (stereo not given) was run?
A: Its Potency is “inactive”.

Q: Cc1ccc(-c2nnc(-c3cccc(NC(=O)c4cccs4)c3)o2)cc1 was tested. Which Potency did it give?
A: The Potency was “inactive”.

Q: Cc1cc2ccccc2n1CCNC(=O)c1ccccc1 was tested. Which Potency did it give?
A: The Potency was inconclusive: 50.1 µM [inhibitor, partial curve, poor fit].

Q: Which Potency does the source give for Cc1ccccc1Nc1nc(-c2ccccc2)c(C(=O)Nc2cccnc2)s1 here?
A: The Potency was “inactive”.

Q: How did the Potency turn out when O=C(NC(=S)N1CCN(c2ccc(Cl)cc2[N+](=O)[O-])CC1)c1cccs1 was run?
A: The Potency was inconclusive: 39.8 µM [inhibitor, single point].

Q: How did the Potency turn out when O=C(O)c1ccc(/C=C2\SC(=S)N(NC(=O)c3ccccc3[N+](=O)[O-])C2=O)cc1 was run?
A: Its Potency is inconclusive: 89.1 µM [inhibitor, single point].

Q: With COc1ccc(Cl)cc1NC(=O)CN(C)C(=O)c1cc(-c2ccncc2)nc2ccccc12 as the molecule, how does the Potency read?
A: Its Potency is active: 10 µM.

Q: With COc1cccc(CC(=O)Nc2ccc3c(c2)CCC3)c1 as the molecule, how does the Potency read?
A: The Potency was inconclusive: 8.91 µM [inhibitor, partial curve, poor fit].

Q: With Cc1ccc2cc(C#N)c(N3CCCC3)nc2c1C as the molecule, how does the Potency read?
A: The Potency was inconclusive: 2.24 µM [inhibitor, partial curve, poor fit].

Q: Which Potency does the source give for CCCC(=O)Nc1nc2nc(-c3ccccc3)cc(-c3ccccc3)n2n1 here?
A: Its Potency is inconclusive: 8.91 µM [inhibitor, single point].

Q: Which Potency does the source give for CC(C)N=C(NS(=O)(=O)NC(=O)c1ccccc1)c1ccccc1 here?
A: Its Potency is inconclusive: 39.8 µM [inhibitor, single point].

Q: How did the Potency turn out when CC(=O)[C@H]1CC[C@H]2[C@@H]3CCC4=CC(=O)CC[C@]4(C)[C@H]3[C@H](O)C[C@]12C was run?
A: Its Potency is inconclusive: 79.4 µM [inhibitor, single point].

Q: CCOc1ccc(OCC)c(NC(=O)CC(C)n2nc(C)cc2C)c1 (stereo not given) was tested. Which Potency did it give?
A: The Potency was “inactive”.

Q: CCCc1cc(OC)c2c(c1)OCO2 was tested. Which activity, negative = inhibition did it give?
A: The activity, negative = inhibition was inconclusive: -68.2% [inhibitor] [at 2.33 µM].

Q: For COc1ccccc1N1CCN(Cc2cccs2)CC1, which Potency is on record?
A: Its Potency is active: 6.31 µM.

Q: With COCCN(C(=O)COC(=O)CCc1ccc(OC)cc1)c1c(N)n(Cc2ccccc2)c(=O)[nH]c1=O as the molecule, how does the Potency read?
A: Its Potency is inconclusive: 89.1 µM [inhibitor, partial curve, poor fit].

Q: For CC(C)c1ccccc1NC(=O)COC(=O)c1cc(=O)[nH]c(=O)[nH]1, which Potency is on record?
A: The Potency was inconclusive: 79.4 µM [inhibitor, single point].

Q: For CN(C)S(=O)(=O)c1ccc(N2CCCC2)c(C(=O)OCC(=O)N2CCN(c3ccccc3)CC2)c1, which Potency is on record?
A: The Potency was “inactive”.

Q: How did the Potency turn out when CC(=O)Nc1ccc(S(=O)(=O)N2CCC(c3nnnn3-c3ccccc3)CC2)cc1 was run?
A: Its Potency is “inactive”.

Q: With Cc1nc2ccccc2n2c(O)c(CC(=O)O)cc12 as the molecule, how does the Potency read?
A: Its Potency is inconclusive: 14.1 µM [inhibitor, partial curve, poor fit].

Q: With COc1cc(NC(=O)CSc2nnc3ccc(-c4ccncc4)nn23)cc(OC)c1 as the molecule, how does the Potency read?
A: The Potency was inconclusive: 79.4 µM [inhibitor, single point].

Q: Which Potency does the source give for NC(=O)COc1ccccc1/C=C1/SC(=O)N(CC(=O)N2CCc3ccccc3C2)C1=O here?
A: Its Potency is inconclusive: 89.1 µM [inhibitor, single point].

Q: O=C(c1cccn2c(=O)c3cc(Cl)ccc3nc12)N1CCN(c2ccccc2F)CC1 was tested. Which Potency did it give?
A: The Potency was “inactive”.

Q: With CC1CCN(c2ccc(C(=O)O)cc2NS(=O)(=O)c2ccc(Br)cc2)CC1 as the molecule, how does the Potency read?
A: The Potency was active: 28.2 µM.

Q: For CCc1cc2c(=O)n(Cc3ccco3)c(SCC(=O)N(C)C3CCS(=O)(=O)C3)nc2s1 (stereo not given), which Potency is on record?
A: Its Potency is inconclusive: 79.4 µM [inhibitor, single point].

Q: For CS(=O)(=O)N1N=C(c2ccco2)CC1c1ccccc1 (stereo not given), which Potency is on record?
A: Its Potency is inconclusive: 79.4 µM [inhibitor, single point].

Q: How did the Potency turn out when Cc1nc(C)c(C(=O)Nc2ccccc2-c2ccccc2)o1 was run?
A: The Potency was inconclusive: 56.2 µM [inhibitor, partial curve, poor fit].

Q: CCOc1ccc(NC(=O)CC2C(=O)N(c3ccc(C)cc3)C(=O)N2CCC2=CCCCC2)cc1 (stereo not given) was tested. Which Potency did it give?
A: Its Potency is “inactive”.

Q: Nc1nonc1-c1nc2ccccc2n1Cc1cccc(Cl)c1 was tested. Which Potency did it give?
A: The Potency was “inactive”.

Q: Which Potency does the source give for O=C(CSc1nc(O)cc(=O)n1-c1ccccc1)Nc1ccc(Br)cn1 here?
A: The Potency was inconclusive: 50.1 µM [inhibitor, partial curve, poor fit].

Q: Cc1ccccc1CN1C(=O)C2(c3ccccc31)N(c1ccccc1)C(=O)CS2(=O)=O (stereo not given) was tested. Which Potency did it give?
A: Its Potency is inconclusive: 22.4 µM [inhibitor, single point].

Q: Which Potency does the source give for COc1ccc(CCNC(=O)c2c(O)nc3ccccn3c2=O)cc1 here?
A: The Potency was “inactive”.

Q: How did the Potency turn out when COc1ccc(/C=C(/NC(=O)c2ccccc2)C(=O)N/N=C/c2cccs2)cc1OC was run?
A: The Potency was “inactive”.

Q: For Cc1cccc(CN2CCNC2=O)c1, which Potency is on record?
A: Its Potency is inconclusive: 50.1 µM [inhibitor, partial curve, poor fit].

Q: With CC(C)(C)Nc1cccccc1=O as the molecule, how does the Potency read?
A: The Potency was active: 44.7 µM.

Q: For COCCCNC(=S)Nc1ccc(C)cc1, which Potency is on record?
A: Its Potency is “inactive”.

Q: How did the Potency turn out when C=CCN1C=CC=C/C1=C1\SC(=S)N(C)C1=O was run?
A: The Potency was inconclusive: 28.2 µM [inhibitor, single point].

Q: O=C(CC(C(=O)O)c1ccc(Cl)cc1)c1ccc(Cl)c(Cl)c1 (stereo not given) was tested. Which Potency did it give?
A: The Potency was inconclusive: 0.891 µM [inhibitor, single point].

Q: How did the activity, negative = inhibition turn out when O=C(CN1c2ccccc2Sc2ccccc21)N/N=C/c1ccc(Cl)cc1Cl was run?
A: Its activity, negative = inhibition is inconclusive: -56.8% [inhibitor].

Q: How did the Potency turn out when CC1CCCCN1CCNc1nc(=S)[nH]c2ccccc12 (stereo not given) was run?
A: The Potency was inconclusive: 22.4 µM [inhibitor, single point].

Q: For CCOc1ccc(C(=O)Nc2cccc(C(=O)OCc3cc(=O)n4nc(C5CC5)sc4n3)c2)cc1, which Potency is on record?
A: Its Potency is “inactive”.

Q: COc1ccc(O)c(C(=O)c2cc(C#N)c(=O)n(-c3ccc(Cl)cc3)c2)c1 was tested. Which Potency did it give?
A: Its Potency is inconclusive: 50.1 µM [inhibitor, partial curve, poor fit].

Q: COc1ccc(Cl)cc1NC(=O)Cn1cc(C(=O)c2ccc(C)cc2)c(=O)c2ccc(C)nc21 was tested. Which Potency did it give?
A: Its Potency is “inactive”.

Q: With CCS(=O)(=O)n1nc(-c2ccco2)nc1SC as the molecule, how does the Potency read?
A: Its Potency is inconclusive: 6.31 µM [inhibitor, partial curve, poor fit].

Q: For O=C(Nc1nc(-c2ccccc2)cs1)C1CCCCN1S(=O)(=O)c1ccccc1 (stereo not given), which Potency is on record?
A: The Potency was inconclusive: 7.08 µM [inhibitor, single point].

Q: With CCN(CC(=O)Nc1c(F)cccc1F)C(=O)CCNC(=O)c1ccco1 as the molecule, how does the Potency read?
A: Its Potency is inconclusive: 89.1 µM [inhibitor, partial curve, poor fit].
